Experimental data taken from PubChem BioAssay AID504845 (National Center for Advancing Translational Sciences (NCATS), 2011).
Where “and” joins values, the source holds several entries; their conditions need not be identical. Equal values may be shown once. Screen size: about 390,000 compounds; about 150 (0.038%) were called active. The shares of active, inactive and inconclusive entries below differ from those in the screen. Calls follow the shape of the dose curve; as a rule, active = well fitted inhibition curve with a large enough effect; inconclusive = small, poorly fitted or top-dose-only effect; inactive = no such curve, though single readings can be large or run the other way. Potencies beside an inconclusive call are fits to weak or partial responses and may not hold up.
Also: nearly all actives have a fitted effect of over 75% in size.
Potency is read from the fitted curve at half-maximal effect; tags tell the direction and shape of the fitted curve.

The molecules below were run against Regulator of G-protein signaling 4 (Homo sapiens) (UniProt P49798) (assay: Inhibitors of Regulator of G Protein Signaling (RGS) 4: qHTS). Details: Transcreener GDP fluorescence polarization, RGS4-accelerated GTP hydrolysis; series mostly up to 114 µM.
UniProt P49798, sequence (P49798 whole entry, looked up): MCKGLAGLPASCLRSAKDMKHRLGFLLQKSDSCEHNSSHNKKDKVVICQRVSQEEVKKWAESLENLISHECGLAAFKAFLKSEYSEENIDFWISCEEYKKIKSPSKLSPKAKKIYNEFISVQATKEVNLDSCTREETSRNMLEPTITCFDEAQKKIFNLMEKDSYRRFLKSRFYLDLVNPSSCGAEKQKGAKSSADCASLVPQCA
Method in brief: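 MLSMR compounds (23 nl, pin-transferred) preincubated 10 min at room temperature with a 500nM (2x) first reagent, then RGS4 at 900nM (2x) plus Transcreener GDP mix added; fluorescence polarization (620/688 nm) read before and after 90 min at 30 °C.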
`COc1ccc(CN2CCCC(N3CCN(c4ccc(OC)cc4)CC3)C2)cc1` (configuration not stated) was tested, and the Potency was “inactive”. In the case of `COc1ccc2[nH]c3c(=S)nc[nH]c3c2c1`, the Potency was inconclusive: 79.4 µM [inhibitor, partial curve, poor fit]. In the case of `CC(=O)Nc1ccc(N=Nc2c(C)[nH]n(C(N)=S)c2=O)cc1`, the Potency was “inactive”. For `O=C(c1cccc([N+](=O)[O-])c1)N1CCCC(C(=O)N2CCCCCC2)C1` (configuration not stated), the Potency was inconclusive: 79.4 µM [inhibitor, partial curve, poor fit]. `Cc1ccc(S(=O)(=O)c2nc(-c3ccccc3)oc2N2CCCCCC2)cc1` was tested, and the Potency was “inactive”. `O=C(O)C1CCCN(S(=O)(=O)c2cccs2)C1` (configuration not stated) was tested, and the Potency was “inactive”. In the case of `Cc1cc(C(C2C(=O)CC(C)(C)CC2=O)C2C(=O)CC(C)(C)CC2=O)cc(C)c1OC(F)F`, the Potency was inconclusive: 56.2 µM [inhibitor, partial curve, poor fit]. In the case of `CCn1cc(/C=C/C(=O)NCc2c(C)nn(C)c2C)cn1`, the Potency was “inactive”. With `Cc1ccccc1CN1CCc2cc([N+](=O)[O-])ccc21` the Potency was “inactive”. For `CC(=O)c1cc2c(cc1NS(=O)(=O)c1ccccc1)OCO2`, the Potency was “inactive”. With `CC(C[N+](C)(C)C)OC(N)=O` (configuration not stated) the Potency was inconclusive: 0.15 µM [inhibitor, full curve, poor fit]. For `Cc1cc(Cl)c(S(=O)(=O)N2CCN(c3cccc(C)c3C)CC2)cc1OCC(N)=O`, the Potency was “inactive”. In the case of `Cc1ccccc1-n1c(Cn2c(=O)sc3ccccc32)nnc1SCC(=O)NCC1CCCO1` (configuration not stated), the Potency was inconclusive: 79.4 µM [inhibitor, partial curve, poor fit]. In the case of `CC(C)(C)C1CCc2nc(NC(=O)COc3ccc(F)cc3)sc2C1` (configuration not stated), the Potency was “inactive”. With `NC(=S)N=Nc1c(O)cc(O)c2[nH]c(=O)ccc12` the Potency was inconclusive: 31.6 µM [inhibitor, full curve, poor fit]. For `Cc1cccc(N2C(S)=C(C#N)C(=O)NC2c2ccco2)c1` (configuration not stated), the Potency was inconclusive: 50.1 µM [inhibitor, partial curve, poor fit]. `O=C(NC1CCCC1)C(c1cccnc1)N(C(=O)c1csnn1)c1ccccc1Cl` (configuration not stated) was tested, and the Potency was inconclusive: 70.8 µM [inhibitor, single point]. In the case of `O=C(O)CCCn1cc(NC(=O)c2ccc(Br)o2)cn1`, the Potency was inconclusive: 79.4 µM [inhibitor, partial curve, poor fit]. `S=C(NCCCN1CCOCC1)NCCCN1CCOCC1` was tested, and the Potency was inconclusive: 79.4 µM [inhibitor, partial curve, poor fit]. For `NC(=O)c1c(N)sc2c1CCC2`, the Potency was inconclusive: 79.4 µM [inhibitor, partial curve, poor fit]. With `COCCNC(=O)c1cc2cc(Cl)cc(Cl)c2oc1=O` the Potency was inconclusive: 44.7 µM [inhibitor, partial curve, poor fit]. In the case of `CCCC(=O)Oc1c(Sc2ccc(Cl)cc2)c(C)nn1-c1ccccc1`, the Potency was inconclusive: 50.1 µM [inhibitor, partial curve, poor fit]. In the case of `O=C(Nc1ccc(O)c2c(=O)cc(-c3ccccc3Cl)oc12)c1ccc(Cl)c(Cl)c1`, the Potency was “inactive”. With `Cc1ccc(NC(=O)Cn2nnc3ccccc32)cc1` the Potency was “inactive”. In the case of `[O-]C(=C(C(=S)Nc1cccc2ccccc12)[n+]1cccc(CO)c1)c1ccc(Cl)s1`, the Potency was inconclusive: 79.4 µM [inhibitor, partial curve, poor fit]. In the case of `O=[N+]([O-])c1ccccc1N=Nc1ccc(O)cc1O`, the Potency was inconclusive: 50.1 µM [inhibitor, partial curve, poor fit]. `C=CCc1ccc(O)c(-c2cc(CC=C)ccc2O)c1` was tested, and the Potency was “inactive”. With `O=C(Cn1cc(COc2ccccc2C(F)(F)F)nn1)c1ccc(O)cc1` the Potency was inconclusive: 20 µM [inhibitor, full curve, poor fit]. With `O=C(Nc1ccccc1C(=O)OCc1cc(=O)n2ccsc2n1)c1cccc(F)c1` the Potency was “inactive”. In the case of `Cc1ccc2nc(/C(C#N)=C/c3ccc(-c4ccc(F)cc4F)o3)[nH]c2c1`, the Potency was “inactive”. With `O=S(=O)(Nc1ccc(Cl)cc1)c1ccc(N2CCOCC2)c(NC(=S)NC2CC2)c1` the Potency was inconclusive: 100 µM [inhibitor, partial curve, poor fit]. `COCCNCc1ccccc1` was tested, and the Potency was inconclusive: 50.1 µM [inhibitor, partial curve, poor fit]. For `Clc1ccc(-c2ccc(/C=N/Nc3cc(N4CCOCC4)nc(N4CCOCC4)n3)o2)cc1`, the Potency was “inactive”. For `O=C(NCc1ccc(F)cc1Cl)C1CC(=O)N(C2CCCCCCC2)C1` (configuration not stated), the Potency was “inactive”. For `CCc1nnc(NS(=O)(=O)c2ccc(NC(=S)NC(=O)/C=C/c3cccs3)cc2)s1`, the Potency was inconclusive: 50.1 µM [inhibitor, partial curve, poor fit]. For `Cc1ccc(C(=O)O)cc1-n1c(C)cc(C=O)c1C`, the Potency was “inactive”. With `CCOCc1nnc(NC(=O)c2cc(C(=O)OC)cc([N+](=O)[O-])c2)s1` the Potency was inconclusive: 70.8 µM [inhibitor, partial curve, poor fit]. For `CCOC(=O)COc1ccc(S(=O)(=O)N2CCN(c3ccc(OC)cc3)CC2)cc1`, the Potency was inconclusive: 28.2 µM [inhibitor, full curve, poor fit]. In the case of `COc1cc(/C=C2\C(=N)N3N=C(C)SC3=NC2=O)cc(Cl)c1OCCOc1ccc(NC(C)=O)cc1`, the Potency was inconclusive: 50.1 µM [inhibitor, partial curve, poor fit]. For `NC(=O)NCc1ccc(F)cc1`, the Potency was inconclusive: 100 µM [inhibitor, partial curve, poor fit]. With `COc1ccc(CC(=S)NCCc2ccccc2)cc1` the Potency was inconclusive: 10 µM [inhibitor, full curve, poor fit]. In the case of `CCOC(=O)CNC(=O)CCc1nnc2ccc(N3CCC(C)CC3)nn12`, the Potency was inconclusive: 44.7 µM [inhibitor, partial curve, poor fit]. With `CCn1c(C)nc2cc(C(=O)NNC(=O)c3ccc(C)cc3)ccc21` the Potency was “inactive”. For `O=C(NC(=S)NC1CCSC1=O)c1cccs1` (configuration not stated), the Potency was inconclusive: 79.4 µM [inhibitor, partial curve, poor fit]. In the case of `Cc1nc(SCC(=O)c2ccc(F)cc2)n[nH]1`, the Potency was inconclusive: 89.1 µM [inhibitor, partial curve, poor fit]. For `COc1ccccc1C(=O)NC(=S)Nc1ccc(Cc2ccncc2)cc1`, the Potency was inconclusive: 79.4 µM [inhibitor, partial curve, poor fit]. With `CCOC(=O)c1ccc(-n2c(N)c(C(=O)NCc3ccco3)sc2=S)cc1` the Potency was inconclusive: 79.4 µM [inhibitor, partial curve, poor fit]. For `COc1ccc(Nc2nc(-c3c(C)nc4ncccn34)cs2)cc1`, the Potency was inconclusive: 35.5 µM [inhibitor, partial curve, poor fit]. For `COC(=O)[C@@H](N)CS`, the Potency was inconclusive: 28.2 µM [inhibitor, full curve, poor fit]. `CCCc1cc(=O)[nH]c(SCc2nc(-c3ccc(OC)cc3)no2)n1` was tested, and the Potency was “inactive”. For `CCOC(=O)c1ccc2nc3c(cc2c1)CCS3`, the Potency was “inactive”. For `COc1ccc([C@@H]2Sc3ccccc3N(CCN(C)C)C(=O)[C@@H]2OC(C)=O)cc1`, the Potency was inconclusive: 844 nM [inhibitor, partial curve, poor fit] and inconclusive: 336 nM [inhibitor, full curve, poor fit]. In the case of `Cc1ccc(/C(C#N)=C\c2ccc(N3CCOCC3)o2)cc1`, the Potency was inconclusive: 10 µM [inhibitor, full curve, poor fit]. `C#CCOCCOCCOCCNc1nc(N2CCN(C(=O)CCCCCCCCCCNC(=O)Cn3cc(C[C@@H](C)O)nn3)CC2)nc(N2CCN(C(=O)CCCCCCCCCCNC(=O)[C@H](CCCN=C(N)N)n3cc(C[C@@H](C)CC)nn3)CC2)n1` was tested, and the Potency was inconclusive: 50.1 µM [inhibitor, partial curve, poor fit]. With `CN(C(=O)c1ccoc1)c1ccccc1I` the Potency was “inactive”. `COc1ccc(Cn2c(N)c(S(=O)(=O)c3cccs3)c3nc4ccccc4nc32)cc1` was tested, and the Potency was “inactive”. For `CN(C)C(=O)CSc1ncccc1-c1nc2ccccc2[nH]1`, the Potency was inconclusive: 28.2 µM [inhibitor, full curve, poor fit]. With `COc1cc(OC)cc(C(=O)Nc2nc(-c3nnn(-c4ccc(F)c(Cl)c4)c3C)ns2)c1` the Potency was inconclusive: 28.2 µM [inhibitor, full curve, poor fit]. `CCCc1nc2ccccc2c(=O)n1CC(=O)c1ccccc1` was tested, and the Potency was inconclusive: 79.4 µM [inhibitor, partial curve, poor fit]. `O=S(=O)(NCc1cccs1)c1cccc2cccnc12` was tested, and the Potency was “inactive”. In the case of `O=C(O)CCN1C(=O)/C(=C\c2ccc(-c3nc4ccccc4s3)o2)SC1=S`, the Potency was inconclusive: 100 µM [inhibitor, partial curve, poor fit]. With `N#Cc1c(N2CCCCC2)nc(N)c2c(N)nc(SCC(=O)O)cc12` the Potency was inconclusive: 31.6 µM [inhibitor, full curve, poor fit]. For `CN=C1S/C(=C\c2cn(CC(=O)OC)c3ccccc23)C(=O)N1C`, the Potency was inconclusive: 89.1 µM [inhibitor, single point]. In the case of `CCN1CCN(C(=O)c2ccc3c(c2)N(Cc2ccccc2F)C(=O)c2ccccc2S3(=O)=O)CC1`, the Potency was inconclusive: 79.4 µM [inhibitor, single point]. `CCCCCCCCCC(=O)OCC(CO)OC(=O)CCCCCCCCC` (configuration not stated) was tested, and the Potency was active: 26.7 µM. With `Oc1c(N=NC(=S)Nc2ccccc2F)c2ccccc2n1Cc1ccccc1Cl` the Potency was “inactive”. For `COc1ccc(NC(=O)CSc2nc3[nH]c(=O)[nH]c(=O)c3s2)cc1OC`, the Potency was “inactive”.
